Data taken from paper PMC4332150.
These are yes or no findings as the source states them, for the method shown. In cells and extracts the contact can be indirect. Some binding calls cover weakened binding; strength is not graded here. Sequences can lack the tags named with a protein.

Amino acid sequences for entries named in this document (tags omitted). A change or cut given only in a name is not applied to a line headed by its entry. Chains listed by the source or under a name are the forms on record and can include a tag or linker.
UniProt P16220: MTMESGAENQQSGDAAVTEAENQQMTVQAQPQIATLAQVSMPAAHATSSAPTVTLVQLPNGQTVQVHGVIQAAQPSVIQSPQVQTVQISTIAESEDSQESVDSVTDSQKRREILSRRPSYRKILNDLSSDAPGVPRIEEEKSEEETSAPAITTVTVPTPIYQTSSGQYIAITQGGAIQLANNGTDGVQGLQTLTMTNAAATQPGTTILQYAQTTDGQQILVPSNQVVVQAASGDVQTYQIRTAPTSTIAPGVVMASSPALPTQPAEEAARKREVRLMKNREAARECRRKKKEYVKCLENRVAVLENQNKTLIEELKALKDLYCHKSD
UniProt P05412: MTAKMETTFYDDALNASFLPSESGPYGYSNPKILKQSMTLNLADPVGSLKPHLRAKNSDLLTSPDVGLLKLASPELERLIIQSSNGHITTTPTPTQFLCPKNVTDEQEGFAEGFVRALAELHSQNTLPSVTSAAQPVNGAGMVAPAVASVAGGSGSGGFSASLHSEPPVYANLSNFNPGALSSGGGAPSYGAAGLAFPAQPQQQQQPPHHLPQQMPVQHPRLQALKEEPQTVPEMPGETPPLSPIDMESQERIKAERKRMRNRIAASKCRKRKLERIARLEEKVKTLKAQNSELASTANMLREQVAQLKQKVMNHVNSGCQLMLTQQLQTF
UniProt Q9Y297: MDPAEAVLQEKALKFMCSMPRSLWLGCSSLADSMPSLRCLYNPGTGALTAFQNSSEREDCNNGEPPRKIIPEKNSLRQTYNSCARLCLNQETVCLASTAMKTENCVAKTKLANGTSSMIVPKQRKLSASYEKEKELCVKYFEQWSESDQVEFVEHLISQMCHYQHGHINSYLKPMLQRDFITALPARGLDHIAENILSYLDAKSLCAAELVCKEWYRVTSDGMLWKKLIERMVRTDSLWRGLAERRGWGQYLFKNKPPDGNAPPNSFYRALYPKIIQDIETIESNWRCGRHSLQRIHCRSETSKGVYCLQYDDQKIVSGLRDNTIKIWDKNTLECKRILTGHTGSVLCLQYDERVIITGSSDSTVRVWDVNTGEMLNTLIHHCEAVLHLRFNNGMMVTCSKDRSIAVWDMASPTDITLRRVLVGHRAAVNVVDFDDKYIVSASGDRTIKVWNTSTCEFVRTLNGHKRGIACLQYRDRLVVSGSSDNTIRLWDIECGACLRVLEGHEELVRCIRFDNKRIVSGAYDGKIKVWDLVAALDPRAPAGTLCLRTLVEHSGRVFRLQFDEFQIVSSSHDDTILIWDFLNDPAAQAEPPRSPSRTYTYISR
MYC-tagged βTRCP (R474A) (Q9Y297-2, form named): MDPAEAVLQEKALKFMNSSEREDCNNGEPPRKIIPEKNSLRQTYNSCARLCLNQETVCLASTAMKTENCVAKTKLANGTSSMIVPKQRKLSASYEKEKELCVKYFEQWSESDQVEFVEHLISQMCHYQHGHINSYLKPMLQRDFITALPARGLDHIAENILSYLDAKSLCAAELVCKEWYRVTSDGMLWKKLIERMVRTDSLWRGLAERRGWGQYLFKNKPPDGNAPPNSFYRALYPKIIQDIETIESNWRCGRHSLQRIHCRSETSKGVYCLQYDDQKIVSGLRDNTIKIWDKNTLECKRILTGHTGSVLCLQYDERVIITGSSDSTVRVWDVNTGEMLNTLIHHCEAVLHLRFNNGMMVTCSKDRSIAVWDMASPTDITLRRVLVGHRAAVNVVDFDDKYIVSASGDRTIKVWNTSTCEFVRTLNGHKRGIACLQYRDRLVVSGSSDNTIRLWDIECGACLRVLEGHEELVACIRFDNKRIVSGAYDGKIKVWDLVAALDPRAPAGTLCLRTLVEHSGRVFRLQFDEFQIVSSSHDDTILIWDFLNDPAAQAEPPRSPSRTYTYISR
UniProt Q9UKB1: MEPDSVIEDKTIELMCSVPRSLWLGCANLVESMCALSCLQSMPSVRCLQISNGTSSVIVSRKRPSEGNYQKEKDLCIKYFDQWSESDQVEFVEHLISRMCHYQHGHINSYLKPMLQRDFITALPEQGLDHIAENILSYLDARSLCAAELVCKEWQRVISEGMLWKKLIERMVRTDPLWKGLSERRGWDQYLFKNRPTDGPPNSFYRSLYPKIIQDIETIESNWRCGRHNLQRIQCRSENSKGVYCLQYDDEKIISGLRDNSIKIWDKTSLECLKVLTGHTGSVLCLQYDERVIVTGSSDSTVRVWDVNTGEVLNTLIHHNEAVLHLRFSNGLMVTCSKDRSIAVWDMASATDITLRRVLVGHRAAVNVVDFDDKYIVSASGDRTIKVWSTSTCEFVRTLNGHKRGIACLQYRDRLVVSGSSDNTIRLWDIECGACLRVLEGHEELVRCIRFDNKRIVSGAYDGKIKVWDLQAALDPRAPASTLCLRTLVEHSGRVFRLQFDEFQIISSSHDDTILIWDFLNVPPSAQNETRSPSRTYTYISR

T1: SFB-tagged FOXN2 (human) (UniProt P32314)
T1 sequence: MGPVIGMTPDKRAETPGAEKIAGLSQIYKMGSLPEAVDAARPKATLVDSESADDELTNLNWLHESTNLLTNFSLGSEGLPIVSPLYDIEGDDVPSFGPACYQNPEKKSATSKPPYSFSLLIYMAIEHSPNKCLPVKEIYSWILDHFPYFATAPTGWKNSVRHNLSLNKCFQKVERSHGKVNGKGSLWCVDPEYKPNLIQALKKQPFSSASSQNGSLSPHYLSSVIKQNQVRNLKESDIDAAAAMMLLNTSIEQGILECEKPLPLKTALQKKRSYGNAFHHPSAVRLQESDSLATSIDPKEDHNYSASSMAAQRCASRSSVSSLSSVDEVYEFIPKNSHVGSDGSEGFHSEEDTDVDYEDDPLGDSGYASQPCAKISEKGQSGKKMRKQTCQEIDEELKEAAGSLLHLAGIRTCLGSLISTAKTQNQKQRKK

T2: SFB-tagged ATF2 (UniProt P15336)
T2 sequence: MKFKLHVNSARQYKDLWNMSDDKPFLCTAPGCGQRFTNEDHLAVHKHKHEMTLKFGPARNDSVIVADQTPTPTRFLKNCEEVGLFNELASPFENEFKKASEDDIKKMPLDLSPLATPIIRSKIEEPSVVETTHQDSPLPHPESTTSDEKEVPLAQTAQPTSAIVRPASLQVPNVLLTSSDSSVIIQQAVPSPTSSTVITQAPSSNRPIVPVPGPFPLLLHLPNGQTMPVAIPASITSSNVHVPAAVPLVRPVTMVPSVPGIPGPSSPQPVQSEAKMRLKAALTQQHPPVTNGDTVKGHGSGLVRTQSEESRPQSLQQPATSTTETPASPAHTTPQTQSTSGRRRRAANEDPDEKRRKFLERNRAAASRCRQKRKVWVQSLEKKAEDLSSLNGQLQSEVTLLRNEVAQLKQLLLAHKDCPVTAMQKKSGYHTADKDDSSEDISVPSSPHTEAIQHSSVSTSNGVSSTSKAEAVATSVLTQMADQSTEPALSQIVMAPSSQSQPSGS

T3: SFB-tagged ATF1 (UniProt P18846)
T3 sequence: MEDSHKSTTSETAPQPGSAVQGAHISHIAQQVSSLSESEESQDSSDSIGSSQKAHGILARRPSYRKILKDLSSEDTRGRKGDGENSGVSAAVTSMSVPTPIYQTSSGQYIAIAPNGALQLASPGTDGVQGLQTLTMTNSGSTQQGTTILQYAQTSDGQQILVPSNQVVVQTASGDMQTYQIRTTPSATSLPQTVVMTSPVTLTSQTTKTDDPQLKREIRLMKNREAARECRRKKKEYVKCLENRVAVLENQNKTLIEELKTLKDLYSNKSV


Columns and labels:
SFB-tagged FOXN2 (human) = biological target: T1, SFB-tagged FOXN2 (human); test: pull-down; 293T cells co-transfected with SFB-tagged and MYC-tagged constructs; S-protein beads, immunoblot; called co-IP in the text
SFB-tagged ATF2 [1] = biological target: T2, SFB-tagged ATF2; test: pull-down; 293T cells co-transfected with MYC-tagged and SFB-tagged constructs; S-protein beads, immunoblot; chromatin fraction
SFB-tagged CREB1 (human) [2] = biological target: SFB-tagged CREB1 (human) (UniProt P16220); test: as above
SFB-tagged JUN (human) [3] = biological target: SFB-tagged JUN (human) (UniProt P05412); test: as above
SFB-tagged ATF2 [4] = biological target: T2, SFB-tagged ATF2; test: pull-down; 293T cells co-transfected with MYC-tagged and SFB-tagged constructs; S-protein beads, immunoblot; soluble fraction
SFB-tagged CREB1 (human) [5] = biological target: SFB-tagged CREB1 (human) (UniProt P16220); test: as above
SFB-tagged JUN (human) [6] = biological target: SFB-tagged JUN (human) (UniProt P05412); test: as above
SFB-tagged ATF1 = biological target: T3, SFB-tagged ATF1; test: pull-down; 293T cells co-transfected with MYC-tagged and SFB-tagged constructs; S-protein beads, immunoblot; chromatin fraction

| Molecule | binding (SFB-tagged FOXN2 (human)) | binding (SFB-tagged ATF2 [1]) | binding (SFB-tagged CREB1 (human) [2]) | binding (SFB-tagged JUN (human) [3]) | other results |
| --- | --- | --- | --- | --- | --- |
| MYC-tagged βTRCP (from UniProt Q9Y297 1-605) | binds | – | – | – | – |
| MYC-tagged RFX1 (protein, UniProt P22670 1-979) MATQAYTELQAAPPPSQPPQAPPQAQPQPPPPPPPAAPQPPQPPTAAATPQPQYVTELQSPQPQAQPPGGQKQYVTELPAVPAPSQPTGAPTPSPAPQQYIVVTVSEGAMRASETVSEASPGSTASQTGVPTQVVQQVQGTQQRLLVQTSVQAKPGHVSPLQLTNIQVPQQALPTQRLVVQSAAPGSKGGQVSLTVHGTQQVHSPPEQSPVQANSSSSKTAGAPTGTVPQQLQVHGVQQSVPVTQERSVVQATPQAPKPGPVQPLTVQGLQPVHVAQEVQQLQQVPVPHVYSSQVQYVEGGDASYTASAIRSSTYSYPETPLYTQTASTSYYEAAGTATQVSTPATSQAVASSGSMPMYVSGSQVVASSTSTGAGASNSSGGGGSGGGGGGGGGGGGGGSGSTGGGGSGAGTYVIQGGYMLGSASQSYSHTTRASPATVQWLLDNYETAEGVSLPRSTLYCHYLLHCQEQKLEPVNAASFGKLIRSVFMGLRTRRLGTRGNSKYHYYGLRIKASSPLLRLMEDQQHMAMRGQPFSQKQRLKPIQKMEGMTNGVAVGQQPSTGLSDISAQVQQYQQFLDASRSLPDFTELDLQGKVLPEGVGPGDIKAFQVLYREHCEAIVDVMVNLQFTLVETLWKTFWRYNLSQPSEAPPLAVHDEAEKRLPKAILVLLSKFEPVLQWTKHCDNVLYQGLVEILIPDVLRPIPSALTQAIRNFAKSLESWLTHAMVNIPEEMLRVKVAAAGAFAQTLRRYTSLNHLAQAARAVLQNTAQINQMLSDLNRVDFANVQEQASWVCRCEDRVVQRLEQDFKVTLQQQNSLEQWAAWLDGVVSQVLKPYQGSAGFPKAAKLFLLKWSFYSSMVIRDLTLRSAASFGSFHLIRLLYDEYMYYLIEHRVAQAKGETPIAVMGEFANLATSLNPLDPDKDEEEEEEEESEDELPQDISLAAGGESPALGPETLEPPAKLARTDARGLFVQALPSS | binds | – | – | – | – |

The next lines start with results.

| binding (SFB-tagged FOXN2 (human)) | binding (SFB-tagged ATF2 [1]) | binding (SFB-tagged CREB1 (human) [2]) | binding (SFB-tagged JUN (human) [3]) | Molecule | other results |
| --- | --- | --- | --- | --- | --- |
| no binding | – | – | – | MYC-tagged βTRCP (R474A) (from UniProt Q9Y297-2 1-569) | – |
| binds | – | – | – | MYC-tagged βTRCP2 (from UniProt Q9UKB1 1-542) | – |
| – | binds | binds | binds | MYC-tagged ATF1 (protein, UniProt P18846 1-271) MEDSHKSTTSETAPQPGSAVQGAHISHIAQQVSSLSESEESQDSSDSIGSSQKAHGILARRPSYRKILKDLSSEDTRGRKGDGENSGVSAAVTSMSVPTPIYQTSSGQYIAIAPNGALQLASPGTDGVQGLQTLTMTNSGSTQQGTTILQYAQTSDGQQILVPSNQVVVQTASGDMQTYQIRTTPSATSLPQTVVMTSPVTLTSQTTKTDDPQLKREIRLMKNREAARECRRKKKEYVKCLENRVAVLENQNKTLIEELKTLKDLYSNKSV | binding (SFB-tagged ATF2 [4]): binds; binding (SFB-tagged CREB1 (human) [5]): binds; binding (SFB-tagged JUN (human) [6]): binds |
| – | binds | binds | binds | MYC-tagged NFATC1 (protein, UniProt O95644 1-943) MPSTSFPVPSKFPLGPAAAVFGRGETLGPAPRAGGTMKSAEEEHYGYASSNVSPALPLPTAHSTLPAPCHNLQTSTPGIIPPADHPSGYGAALDGGPAGYFLSSGHTRPDGAPALESPRIEITSCLGLYHNNNQFFHDVEVEDVLPSSKRSPSTATLSLPSLEAYRDPSCLSPASSLSSRSCNSEASSYESNYSYPYASPQTSPWQSPCVSPKTTDPEEGFPRGLGACTLLGSPRHSPSTSPRASVTEESWLGARSSRPASPCNKRKYSLNGRQPPYSPHHSPTPSPHGSPRVSVTDDSWLGNTTQYTSSAIVAAINALTTDSSLDLGDGVPVKSRKTTLEQPPSVALKVEPVGEDLGSPPPPADFAPEDYSSFQHIRKGGFCDQYLAVPQHPYQWAKPKPLSPTSYMSPTLPALDWQLPSHSGPYELRIEVQPKSHHRAHYETEGSRGAVKASAGGHPIVQLHGYLENEPLMLQLFIGTADDRLLRPHAFYQVHRITGKTVSTTSHEAILSNTKVLEIPLLPENSMRAVIDCAGILKLRNSDIELRKGETDIGRKNTRVRLVFRVHVPQPSGRTLSLQVASNPIECSQRSAQELPLVEKQSTDSYPVVGGKKMVLSGHNFLQDSKVIFVEKAPDGHHVWEMEAKTDRDLCKPNSLVVEIPPFRNQRITSPVHVSFYVCNGKRKRSQYQRFTYLPANVPIIKTEPTDDYEPAPTCGPVSQGLSPLPRPYYSQQLAMPPDPSSCLVAGFPPCPQRSTLMPAAPGVSPKLHDLSPAAYTKGVASPGHCHLGLPQPAGEAPAVQDVPRPVATHPGSPGQPPPALLPQQVSAPPSSSCPPGLEHSLCPSSPSPPLPPATQEPTCLQPCSPACPPATGRPQHLPSTVRRDESPTAGPRLLPEVHEDGSPNLAPIPVTVKREPEELDQLYLDDVNEIIRNDLSSTSTHS | binding (SFB-tagged ATF1): binds |
